The values below come from the RNAGym collection of RNA variant scans (doi:10.7554/elife.90254).

First the molecules themselves.
B1: LINE1-full (parent)
chain: UACGUAGGUGGUUUUCCCCUGAUAGUGCUAAGGGGGCCUGGAAGUUUGGACUGGGCAGAGCUCAACACAGCGUGGCAAAGUGGCUGUGGCUAGACUGCCUCUCUGGAUUCCUCGUCACUCAGCAGGGCAUCUCUGAGAGAAAUGCC

The source gives no read counts; variants with many changes may rest on few reads.

The variants in this data set derive from B1. Briefly: self-cleavage, relative activity (ratio to wild type); higher = more cleavage; in vitro, sequencing; the parent is a self-cleaving ribozyme.
Consider UACGUAGGUGGUUUACCCCUGAUAGUGCUGAGGGGGCCUGGAAGUUCGGACUGGGCAGAGCUCUACACAGCGUGGCAAGGUGGCUGUGGCUAGACUGCCUCUCUGGAUUCCUCGUCACUCAGCAGGGCAUCUCUGAGAGAAAUGCC [U15A A30G U47C A64U A79G], for which the self-cleavage amounted to 0.92.
As for UACGUAGGUGGUUGUCCCCUGAUAGUGCUAAGGGGGCCUGGAAGUAUGGACUGGGCAGAGCUCAACACAGCGUGGCAAAGUGGCUGUGGCUAGACUGCCUCUCUGGACUCCUCGUCACUCAGCAGGGCAUCUCUGAGAGAAAUGCC [U14G U46A U108C], the self-cleavage is 0.44.
Next, UACGUAGGUGGUUCUCCCCUGAUAGUGCUAAGGGGGCCUGGAAGUUUGGACUGGGCAGAGCUCAACACAGCGUGGCAAAGUGGCUGUGGCUAGACUGCCUCUCUGGAUUCCUCGUCACUCAGCAGGGCAUCACUGAGAAAAAUGCC [U14C U132A G139A]: 2.7; UACGUAGGUGGUUUACCCCUGAUGGUGCUAAGGGGGCCUGGAAGUUUGGACUGGGCAGAGCUCAACACAGCGCGGCAUAGUGGCUGUGGCUAGACUGCCUCUCUGGAUCCCUCGUCACUCAGCAGAGCAUCUCUGAGAGAAGUGCC [U15A A24G U73C A78U U109C G126A A142G]: 2.58; UACGUAGGUGGUUCUCCCCUGAUAGUGCUAAGGGGGCCUGGAAGUUUGGACUGGGCAGAGCUCAACACAGCGUGGCAAAGUGGCUGUGGCUAGACUGCCUCUCUGGAUUCCUCGUCACUCAGCAGGGCAUCUCGGAGAGAAACGCC [U14C U134G U143C]: 2.
Next, UACGUAGGUGGUUGUCCCCUGAUAGUGCUAAGGGGGCCUGGAAGUUUGGACCGGGCAGAGCUCAACACAGCGUGGCAAAGUGGCUGUGGCUAGACUGCCUCUCUGGAUUCCUCGUCACUCAGCAGGGCGUCUCUGAGAGAAAUGCC [U14G U52C A129G]: 1.67; UACGUAGGUGGUUUACCCCUGAUAGUGCUGAGGGGGCCUGGAAGUUUGGACUGGGCAGAGCUCAACACAGCGUGGCAAAGUGGCUGCGGCUAGACAGCCUCUCUGGAUUCCCCGUCACUCAGCAGGGCAUCUCUGAGAGAAAUGCC [U15A A30G U87C U96A U112C]: 0.
The figure for UACGUAGGUGGUUCUCCCCUGAUAGUGCUAAGGGGGCCUGGAAGUUUGGACUGGGCAGAGCUCAACACAGCGUGGCAAAGUGGCUGUGGCUAGACUGCCUCUCCGGAUUCCUCGUCACUCAGCGGGGCAUCUCUGAGAGAAAUGCC [U14C U104C A124G] is 0.88; for UACGUAGGUGGUUGUCCCCUGAUAGUGCUAAGGGGGCCUGGAAGUAUGGACUGGGCAGAGCUCAACACAGCGUGGCAAAGUGGCUGUGGCUAGACUGCCUCUCUGGAUUCCACGUCACUCAGCAGGGCGUCUCUGAGAGAAAUGCC [U14G U46A U112A A129G] it is 1.16.
As to UACGUAGGUGGUUCUCCCCUGAUAGUGCUAAGGGGGCCUGGAAGUUUGGACUGGGCAGAGCUCAACACAGCGUGGCAAAGUGGCUGUGGCUAGACUGCCUCUCCGGAUUCCUCGUCACUCAGCAGAGCAUCUCUGAGAGAAAUGCC [U14C U104C G126A], the self-cleavage worked out at 2.15.
Next, UACGUAGGUGGUUCUCCCCUGAUAGUGCUAAGGGGGCCUGGAAGUUUGGACUGGGCAGAGCUCAACACAGCGUGGCAAAGUGGCUGUGGCUAGACUGCCUCUCUGGACUCCUCGUCACUCAGCAGGGCAUCUCUGAGGGAAAUGCC [U14C U108C A138G]: 2.67; UACGUAGGUGGUUGUCCCCUGAUAGUGCCAAGGGGGCCUGGAAGUUUGGACUGGGCAGAGCUCCACACAGCGUGGCAAAGUGGCUGUGGCUAGACUGCCUCUCUGGAUUCCUCGUCACUCAGCAGGGCAUCUCUGAGAGAAAUGCC [U14G U29C A64C]: 0.59; UACGUAGGUGGUUCUCCCCUGAUAGUGCUAAGGGGGCCUGGAAGUUUGGACUGGGCAGAGCUCAACACAGCGUGGCAAAGUGGCUGUGGCUAGACUGCCUCUCUGGAUUCCUCGCCACUCAGCAGGGCACCUCUGAGAGAAAUGCC [U14C U115C U130C]: 2.3.
Consider UACGUAGGUGGUUGUCCCCUGAUAGUGCUAAGGGGGCCUGGAAGUUUGGACUGGGCAGAGCUCAACACAGCGUGGCAAAGUGGCUGUGGCCAGACUGCCUCUCUGGAUUCCUCGCCACUCAGCAGGGCAUCUCUGAGAGAAAUGCC [U14G U91C U115C], for which the self-cleavage is 1.15.
Next, UACGUAGGUGGUUUACCCCUGGUAGUGCUAAGGGGGCCUGGAAGUUUGGACUGGGCAGAGCCCGACACAGCGUGGCAAAGUGGCUGUGGCUAGACUGCCUCUCUGGAUUCCUCGUCACUCAGCAGGGCAUCUCUGAGAGAAAUGCC [U15A A22G U62C A64G]: 0; UACGUAGGUGGUUGUCCCCUGAUAGUGCUAAGGGGGCCUGGAAGUUUGGACUGGGCAGAGCCCAACACAGCGUGGCAAAGUGGCUGUGGCUAGACUGCCUCACUGGAUUCCUCGUCACUCUGCAGGGCAUCUCUGAGAGAAAUGCC [U14G U62C U102A A121U]: 0; UACGUAGGUGGUUGUCCCCUGUUAGUGCUAAGGGGGCCCGGAAGUUUGGACUGGGCAGAGCUCAACACAGCGUGGCAAAGUGGCUGUGGCUAGACUGCCUCUCUGGAUUCCUCGUCACUCAGCAGGGCAUCUCUGAGAGAAAUGCC [U14G A22U U39C]: 0.84.
For UACGUAGGUGGUUGUCACCUGAUAGUGCUAAGGGGGCCUGGAAGUUUGGACUGGGCAGAGCUCAACACAGCGUGGCUAAGUGGCUGUGGCUAGACUGCCUCUCUGGAUUCCUCGUCACUCAGCAGGGCAUCUCUGAGAGAAAUGCC [U14G C17A A77U], the self-cleavage was 0.38.
The figure for UACGUAGGUGGUUCUCCCCUGAUAGUGCUAAGGGGGCCUGGAAGUUUGGACUGGGCAGAGCUCAACACAGCGUGGCAAAGUGGCUGUGGCUAGACUGCCUCCCUGGAUUCCUCGUCACUCAGCAGGGCAUCUCUGGGAGAAAUGCC [U14C U102C A136G] is 0.
